The source of these data is the supplement of paper PMC10369915.

The other results are listed elsewhere or left out. No stated cut-off is given here; in the data, active = 3.2 or more and inactive = the rest. The signal is at background level for most entries.
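Further: displayed peptides selected on beads carrying the immobilized SH2 domain, with library peptides lacking any tyrosine serving as negative controls.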

The target in one test is SHP2 C-SH2 domain E139D. As to the kind of experiment: enrichment score (SH2-bound / input frequency) (ratio); bacterial display of known human phosphotyrosine sites (pTyr-Var adds point mutants) read by sequencing; higher = stronger binding; tyrosines were phosphorylated by kinases first. The following applies: peptide library: pTyr-Var.
As to GTATTYLCGVK [ALPL_Y117_A116T], the enrichment score is inactive: 0.704.

Consider AFGEVYEGQES [ALK_Y1131_V1135E], for which the enrichment score was inactive: 0.729.

Take RLCQDYDTIGP [ANK1_Y1073]: the enrichment score is inactive: 1.21.

Regarding NLNGKYFKPRA [ANGPTL3_Y417_N418Y_YF], the enrichment score was inactive: 1.37.

Consider MARDIYRASFF [ALK_Y1278_YF], for which the enrichment score was inactive: 1.02.

Consider TIMTNYNPNFC [ALK_Y1092_D1091N_YF], for which the enrichment score was inactive: 0.932.

FLTLHYDAKPQ [ANG_Y38_Q36L]: the enrichment score was inactive: 2.22.

Take KLSFSYGQALQ [ALDOB_Y302_R304Q]: the enrichment score is inactive: 0.777.

Turning to RPSRWYQFRVA [ANOS1_Y259], the enrichment score is inactive: 0.245.

As for SRASFYRKGGC [ALK_Y1283_Y1278S_YF], the enrichment score is inactive: 0.333.

In the case of RQQQDYWLMDV [ANPEP_Y600_I603M], the enrichment score was inactive: 0.92.

For MALDIYRASYY [ALK_Y1278_R1275L], the enrichment score was inactive: 1.94.

For MARDISRASYY [ALK_Y1278_Y1278S], the enrichment score was inactive: 0.862.

For TIMTDYNPNYC [ALK_Y1092], the enrichment score was inactive: 0.595.

With RSLLQYGGSAN [ANK1_Y624], the enrichment score is inactive: 1.81.

For IFLADCRIMEG [ALOX12B_Y318_Y318C_YF], the enrichment score was inactive: 0.923.

For KTKLGYSPLHQ [ANK1_Y735], the enrichment score is inactive: 1.14.

In the case of SRDTCYLVLAV [AMH_Y195_R194C], the enrichment score was inactive: 1.31.

For the next test, the target named is SHP2 C-SH2 domain wild-type. Described as above. The following applies: peptide library: pTyr-Var.
In the case of GTATTYLCGVK [ALPL_Y117_A116T], the enrichment score was inactive: 0.656.

For the molecule AFGEVYEGQES [ALK_Y1131_V1135E], the enrichment score was inactive: 0.569.

Take RLCQDYDTIGP [ANK1_Y1073]: the enrichment score is inactive: 1.31.

As for NLNGKYFKPRA [ANGPTL3_Y417_N418Y_YF], the enrichment score was inactive: 1.09.

Turning to MARDIYRASFF [ALK_Y1278_YF], the enrichment score was inactive: 0.965.

TIMTNYNPNFC [ALK_Y1092_D1091N_YF]: the enrichment score is inactive: 1.25.

For the molecule FLTLHYDAKPQ [ANG_Y38_Q36L], the enrichment score was inactive: 1.78.

Turning to KLSFSYGQALQ [ALDOB_Y302_R304Q], the enrichment score was inactive: 0.859.

With RPSRWYQFRVA [ANOS1_Y259], the enrichment score was inactive: 0.265.

Consider SRASFYRKGGC [ALK_Y1283_Y1278S_YF], for which the enrichment score is inactive: 0.25.

Regarding RQQQDYWLMDV [ANPEP_Y600_I603M], the enrichment score was inactive: 0.743.

As to MALDIYRASYY [ALK_Y1278_R1275L], the enrichment score is inactive: 1.73.

For the molecule MARDISRASYY [ALK_Y1278_Y1278S], the enrichment score is inactive: 0.868.

Regarding TIMTDYNPNYC [ALK_Y1092], the enrichment score is inactive: 0.661.

On to RSLLQYGGSAN [ANK1_Y624], for which the enrichment score is inactive: 0.834.

Turning to IFLADCRIMEG [ALOX12B_Y318_Y318C_YF], the enrichment score is inactive: 1.17.

As for KTKLGYSPLHQ [ANK1_Y735], the enrichment score is inactive: 1.09.

For the molecule SRDTCYLVLAV [AMH_Y195_R194C], the enrichment score was inactive: 1.32.

In another test the target is SHP2 N-SH2 domain L43F. The test is described as above. The following applies: peptide library: pTyr-Var.
Take GTATTYLCGVK [ALPL_Y117_A116T]: the enrichment score was inactive: 0.68.

As to AFGEVYEGQES [ALK_Y1131_V1135E], the enrichment score is inactive: 0.647.

Turning to RLCQDYDTIGP [ANK1_Y1073], the enrichment score was inactive: 1.18.

For NLNGKYFKPRA [ANGPTL3_Y417_N418Y_YF], the enrichment score is inactive: 1.11.

With MARDIYRASFF [ALK_Y1278_YF], the enrichment score was inactive: 0.932.

On to TIMTNYNPNFC [ALK_Y1092_D1091N_YF], for which the enrichment score is inactive: 0.844.

In the case of FLTLHYDAKPQ [ANG_Y38_Q36L], the enrichment score is inactive: 1.71.

For KLSFSYGQALQ [ALDOB_Y302_R304Q], the enrichment score is inactive: 0.862.

Take RPSRWYQFRVA [ANOS1_Y259]: the enrichment score is inactive: 0.231.

SRASFYRKGGC [ALK_Y1283_Y1278S_YF]: the enrichment score was inactive: 0.217.

Take RQQQDYWLMDV [ANPEP_Y600_I603M]: the enrichment score was inactive: 0.836.

Turning to MALDIYRASYY [ALK_Y1278_R1275L], the enrichment score is inactive: 1.77.

For MARDISRASYY [ALK_Y1278_Y1278S], the enrichment score was inactive: 0.813.

Consider TIMTDYNPNYC [ALK_Y1092], for which the enrichment score is inactive: 0.597.

RSLLQYGGSAN [ANK1_Y624]: the enrichment score was inactive: 0.753.

In the case of IFLADCRIMEG [ALOX12B_Y318_Y318C_YF], the enrichment score was inactive: 0.937.

KTKLGYSPLHQ [ANK1_Y735]: the enrichment score was inactive: 1.14.

As for SRDTCYLVLAV [AMH_Y195_R194C], the enrichment score was inactive: 1.06.

A further test deals with SHP2 N-SH2 domain T42A. Described as above. The following applies: peptide library: pTyr-Var.
Turning to GTATTYLCGVK [ALPL_Y117_A116T], the enrichment score is inactive: 0.682.

For the molecule AFGEVYEGQES [ALK_Y1131_V1135E], the enrichment score was inactive: 0.493.

For RLCQDYDTIGP [ANK1_Y1073], the enrichment score was inactive: 1.03.

Regarding NLNGKYFKPRA [ANGPTL3_Y417_N418Y_YF], the enrichment score was inactive: 1.02.

MARDIYRASFF [ALK_Y1278_YF]: the enrichment score is inactive: 0.848.

For the molecule TIMTNYNPNFC [ALK_Y1092_D1091N_YF], the enrichment score is inactive: 0.787.

With FLTLHYDAKPQ [ANG_Y38_Q36L], the enrichment score was inactive: 1.86.

As for KLSFSYGQALQ [ALDOB_Y302_R304Q], the enrichment score is inactive: 0.798.

For the molecule RPSRWYQFRVA [ANOS1_Y259], the enrichment score is inactive: 0.482.

For SRASFYRKGGC [ALK_Y1283_Y1278S_YF], the enrichment score is inactive: 0.297.

Turning to RQQQDYWLMDV [ANPEP_Y600_I603M], the enrichment score was inactive: 0.796.

For the molecule MALDIYRASYY [ALK_Y1278_R1275L], the enrichment score was inactive: 1.65.

As for MARDISRASYY [ALK_Y1278_Y1278S], the enrichment score was inactive: 0.722.

As to TIMTDYNPNYC [ALK_Y1092], the enrichment score was inactive: 0.858.

For RSLLQYGGSAN [ANK1_Y624], the enrichment score is inactive: 0.79.

Consider IFLADCRIMEG [ALOX12B_Y318_Y318C_YF], for which the enrichment score is inactive: 0.907.

As for KTKLGYSPLHQ [ANK1_Y735], the enrichment score is inactive: 0.809.

As to SRDTCYLVLAV [AMH_Y195_R194C], the enrichment score is inactive: 1.29.

For another test, the target named is SHP2 N-SH2 domain T52S. Described as above. The following applies: peptide library: pTyr-Var.
With GTATTYLCGVK [ALPL_Y117_A116T], the enrichment score was inactive: 0.564.

Consider AFGEVYEGQES [ALK_Y1131_V1135E], for which the enrichment score was inactive: 0.771.

Consider RLCQDYDTIGP [ANK1_Y1073], for which the enrichment score is inactive: 0.671.

Consider NLNGKYFKPRA [ANGPTL3_Y417_N418Y_YF], for which the enrichment score is inactive: 1.24.

Take MARDIYRASFF [ALK_Y1278_YF]: the enrichment score was inactive: 0.985.

Regarding TIMTNYNPNFC [ALK_Y1092_D1091N_YF], the enrichment score was inactive: 0.933.

Turning to FLTLHYDAKPQ [ANG_Y38_Q36L], the enrichment score was inactive: 2.16.

As to KLSFSYGQALQ [ALDOB_Y302_R304Q], the enrichment score was inactive: 1.09.

As for RPSRWYQFRVA [ANOS1_Y259], the enrichment score was inactive: 0.183.

On to SRASFYRKGGC [ALK_Y1283_Y1278S_YF], for which the enrichment score was inactive: 0.261.

With RQQQDYWLMDV [ANPEP_Y600_I603M], the enrichment score was inactive: 0.76.

Take MALDIYRASYY [ALK_Y1278_R1275L]: the enrichment score is inactive: 1.71.

In the case of MARDISRASYY [ALK_Y1278_Y1278S], the enrichment score is inactive: 0.558.

On to TIMTDYNPNYC [ALK_Y1092], for which the enrichment score is inactive: 0.657.

On to RSLLQYGGSAN [ANK1_Y624], for which the enrichment score was inactive: 0.909.

On to IFLADCRIMEG [ALOX12B_Y318_Y318C_YF], for which the enrichment score was inactive: 0.868.

With KTKLGYSPLHQ [ANK1_Y735], the enrichment score was inactive: 1.08.

Turning to SRDTCYLVLAV [AMH_Y195_R194C], the enrichment score was inactive: 0.985.

In the next test the target is SHP2 N-SH2 domain wild-type. Described as above. The following applies: peptide library: pTyr-Var.
As to GTATTYLCGVK [ALPL_Y117_A116T], the enrichment score is inactive: 1.05.

For AFGEVYEGQES [ALK_Y1131_V1135E], the enrichment score is inactive: 0.668.

In the case of RLCQDYDTIGP [ANK1_Y1073], the enrichment score is inactive: 1.61.

On to NLNGKYFKPRA [ANGPTL3_Y417_N418Y_YF], for which the enrichment score was inactive: 1.24.

MARDIYRASFF [ALK_Y1278_YF]: the enrichment score was inactive: 1.08.

On to TIMTNYNPNFC [ALK_Y1092_D1091N_YF], for which the enrichment score was inactive: 1.36.

As to FLTLHYDAKPQ [ANG_Y38_Q36L], the enrichment score is inactive: 1.56.

With KLSFSYGQALQ [ALDOB_Y302_R304Q], the enrichment score is inactive: 1.05.

For the molecule RPSRWYQFRVA [ANOS1_Y259], the enrichment score is inactive: 0.343.

SRASFYRKGGC [ALK_Y1283_Y1278S_YF]: the enrichment score was inactive: 0.23.

As to RQQQDYWLMDV [ANPEP_Y600_I603M], the enrichment score was inactive: 0.964.

Consider MALDIYRASYY [ALK_Y1278_R1275L], for which the enrichment score was inactive: 1.73.

With MARDISRASYY [ALK_Y1278_Y1278S], the enrichment score was inactive: 0.631.

With TIMTDYNPNYC [ALK_Y1092], the enrichment score was inactive: 0.882.

Take RSLLQYGGSAN [ANK1_Y624]: the enrichment score was inactive: 1.04.

Regarding IFLADCRIMEG [ALOX12B_Y318_Y318C_YF], the enrichment score was inactive: 1.09.

In the case of KTKLGYSPLHQ [ANK1_Y735], the enrichment score was inactive: 1.19.

Regarding SRDTCYLVLAV [AMH_Y195_R194C], the enrichment score is inactive: 1.62.
